Reference: the CheMixHub viscosity set

SMILES	viscosity (303.15 K, 101 kPa)	viscosity (298.15 K, 101 kPa)	viscosity (308.15 K, 101 kPa)	viscosity (313.15 K, 101 kPa)	viscosity (298.15 K, 101.33 kPa)
Cc1cccc(O)c1	10.21 ± 0.26 mPa·s [study A] and 9.47 ± 0.13 mPa·s [study B] and 9.802 ± 0.081 mPa·s [study C] and 8.929 ± 0.062 mPa·s [study D]				
C[N+](=O)[O-]	0.6062 ± 0.016 mPa·s [study A] and 0.6158 ± 0.0071 mPa·s [study B] and 0.584 ± 0.006 mPa·s [study C] and 0.594 ± 0.007 mPa·s [study D]	0.6313 ± 0.064 mPa·s [study A] and 0.637 ± 0.026 mPa·s [study B] and 0.622 ± 0.006 mPa·s [study C] and 0.6469 ± 0.0072 mPa·s [study D] and 0.616 ± 0.006 mPa·s [study E] and 0.619 ± 0.006 mPa·s [study F]	0.5717 ± 0.015 mPa·s [study A] and 0.5833 ± 0.0069 mPa·s [study B] and 0.561 ± 0.006 mPa·s [study C] and 0.563 ± 0.006 mPa·s [study D] and 0.564 ± 0.007 mPa·s [study E]	0.5266 ± 0.013 mPa·s [study A] and 0.5537 ± 0.0068 mPa·s [study B] and 0.545 ± 0.006 mPa·s [study C] and 0.536 ± 0.007 mPa·s [study D]	
CCCCOCCOCCOCCO					9.109 ± 0.11 mPa·s and 0.846 ± 0.008 mPa·s
CC(=O)c1ccc(C)cc1			1.592 ± 0.049 mPa·s [study A] and 1.536 ± 0.014 mPa·s [study B] and 1.536 ± 0.021 mPa·s [study C] and 1.536 ± 0.02 mPa·s [study D]		

± gives the uncertainty stated by the source. For part of its entries the source gives two or more results. They are shown here; other results are not. There may be further records. Values that stand side by side are repeats (runs, samples, wells, individuals or studies). Brackets tell where a record comes from. Letters count within one entry.
